# Measured values taken from PubChem BioAssay AID485364 (National Center for Advancing Translational Sciences (NCATS), 2010).
# Out of some 360,000 compounds screened, about 11,000 (3.1%) were called active. The shares of active, inactive and inconclusive entries below differ from those in the screen. Calls come from the whole dose curve; as a rule, active = well fitted inhibition curve with a large enough effect; inconclusive = small, poorly fitted or top-dose-only effect; inactive = no such curve, though single readings can be large or run the other way. No potency is given beside an inconclusive call; the fits are too rough.
# Target: Schistosoma mansoni thioredoxin glutathione reductase (TGR) (UniProt Q962Y6)
# Experiment: qHTS Assay for the Inhibitors of Schistosoma Mansoni Peroxiredoxins; note: nearly all actives have a fitted effect of over 60% in size
# Conditions: purified TGR, DTNB reduction, TNB absorbance 405 nm; series mostly up to 114 µM
# In short: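 Kinetic colorimetric format: TGR-catalysed, NADPH-driven DTNB reduction monitored via TNB absorbance. Enzyme dispensed at 20 nM; compound exposure 15 min at room temperature before reaction start.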
# Potency is the fitted concentration of half-maximal effect; tags give direction and shape of the fitted curve.
row,SMILES,Potency
1,Cc1nonc1C(=O)N/N=C/c1cccc(O)c1,active: 11.2 µM
2,Oc1c(I)cc(I)c2cccnc12,"inconclusive [inhibitor, partial curve, poor fit]"
3,Cc1cc(/C=C2\SC(=S)NC2=O)c(C)n1C,"inconclusive [inhibitor, single point]"
4,Cc1ccccc1CS(=O)(=O)Cc1ccc(C(=O)NCCCN2CCOCC2)o1,"inconclusive [inhibitor, partial curve]"
5,CC(c1ccccc1)N1CCn2c(nc3cc(NC(=O)NC4CCCCC4)ccc32)C1 (stereo not drawn),"inconclusive [inhibitor, partial curve]"
6,CCOC(=O)c1sc(NC(=O)CSc2nc(O)c(Cc3ccccc3)c(=O)[nH]2)nc1C,"inconclusive [inhibitor, partial curve]"
7,COc1ccc2occ(CC(=O)Nc3ccc(S(=O)(=O)Nc4nccc(C)n4)cc3)c2c1,inactive
8,Cc1cc2nnc(SCc3ccc(F)cc3)n2c2ccccc12,inactive
9,Cc1cc(C)cc(N(CC(=O)NCc2ccc(F)cc2)C(=O)CCC(=O)Nc2ccccn2)c1,inactive
10,Cc1ccccc1CC1(CO)CCCN(Cc2ccccc2Cl)C1 (stereo not drawn),active: 25.1 µM
11,Fc1ccccc1/C=N/Nc1ncnc2nc[nH]c12,"inconclusive [inhibitor, single point]"
12,CCOC(=O)C1CCN(C(=O)c2ccc(Br)o2)CC1,"inconclusive [inhibitor, partial curve]"
13,O=C(c1ccoc1)N1CCC2(CC1)Oc1ccc(F)cc1C(=O)C21CC(c2ccccc2)=NO1 (stereo not drawn),"inconclusive [inhibitor, partial curve]"
14,CC1CCN(c2cc(N3CCOCC3)c(F)cc2[N+](=O)[O-])CC1,inactive
15,CCCCCCC(C)n1[nH]c(=O)cc1N (stereo not drawn),"inconclusive [inhibitor, partial curve]"
16,Cc1cccc(C(=O)Oc2cccc3c(O)cccc23)c1,"inconclusive [inhibitor, partial curve]"
17,Cc1cccc(-n2ncc(C(=O)N3CCN(C4CCCCC4)CC3)c2C2CCN(C(=O)OC(C)(C)C)CC2)c1,inactive
18,Cc1c(CN2CCc3c([nH]c4ccccc34)C2C2CCCCC2)cnn1C (stereo not drawn),inactive
19,COc1cccc2c1N1C(=O)c3c(C(=O)O)cccc3C1CC2(C)C (stereo not drawn),"inconclusive [inhibitor, partial curve, poor fit]"
20,COc1cc(C2C(C#N)=C(N)N(Nc3ccccc3)C3=C2C(=O)CC(C)(C)C3)ccc1OCc1ccccc1 (stereo not drawn),inactive
21,COC(=O)c1ccc(CSc2nc(-c3ccco3)cc(C(F)(F)F)n2)o1,"inconclusive [inhibitor, full curve]"
22,Cc1ccc(NC(=O)c2ccc3nccnc3c2)c(C)c1,active: 56.2 µM
23,CCc1nnc(NC(=O)c2nc(S(=O)(=O)Cc3ccc(C)cc3)ncc2Cl)s1,active: 31.6 µM
24,COc1ccc(-n2cnnc2SCc2ncc(-c3ccccc3)o2)cc1,"inconclusive [inhibitor, single point]"
25,Cc1ccc(CNC(=O)CCC2CCCN(Cc3cc4ccccc4o3)C2)o1 (stereo not drawn),"inconclusive [inhibitor, partial curve]"

row,SMILES,Potency
1,CCN(c1cccc(C)c1)S(=O)(=O)c1ccc(N2CCCCS2(=O)=O)cc1,inactive
2,CCN1C(=O)CSC1=Nc1ccc(C(=O)O)cc1,inactive
3,Cc1cc(=O)[nH]c2c1c(-c1ccccc1)nn2C,"inconclusive [inhibitor, single point]"
4,Cc1cc(C(=O)N2CCN(c3ncccn3)CC2)c(C)o1,"inconclusive [inhibitor, partial curve]"
5,CCN(CC)CCCN1C=C2C(=O)C(C)(OC(=O)C3CCCC3)C(=O)C(c3ccccc3)=C2C=C1CCCC(=O)OC (stereo not drawn),"inconclusive [inhibitor, partial curve]"
6,Cc1ccc2c(c1)CC1(CN2C)C(=O)NC(=O)N(CCC2=CCCCC2)C1=O (stereo not drawn),"inconclusive [inhibitor, partial curve]"
7,CCOC(=O)c1cnc(SC2CC(=O)N(c3cccc(OC)c3)C2=O)nc1N (stereo not drawn),"inconclusive [inhibitor, partial curve]"
8,COc1cc(C(=O)Nc2ccccc2N2CCOCC2)ccc1OCC(=O)N1CCOCC1,inactive
9,Cc1ccc(NC(=O)Cn2ccsc2=N)c([N+](=O)[O-])c1,"inconclusive [inhibitor, partial curve]"
10,C=CCN(c1cccc(C(F)(F)F)c1)S(=O)(=O)c1cccc(C(=O)OCC(=O)NC)c1,inactive
11,Cc1cc2oc(C(=O)Nc3ccc(S(N)(=O)=O)cc3)cc(=O)c2cc1C,inactive
12,O=C1CC(N2CCC(c3nc4ccccc4[nH]3)CC2)C(=O)N1Cc1ccccc1 (stereo not drawn),"inconclusive [inhibitor, full curve, poor fit]"
13,CCN(c1ccccc1)S(=O)(=O)c1cc(C(=O)Nc2ccc(F)c(F)c2)ccc1F,inactive
14,O=C(CCSc1ccccc1)NNC(=O)c1ccccc1F,"inconclusive [inhibitor, partial curve]"
15,COc1cc(OC)c(OC)cc1/C=C1/Cc2ccccc2C1=O,inactive
16,COc1ccc2ccccc2c1CN1CCN(C(=O)c2ccccc2)CC1,active: 28.2 µM
17,CC(NC(=S)Nc1ccccc1C(F)(F)F)C1CC2CCC1C2 (stereo not drawn),"inconclusive [inhibitor, single point]"
18,O=c1c2c3c(sc2n2cnnc2n1-c1ccccc1)N(Cc1ccccc1)CCC3,active: 25.1 µM
19,Cc1cc(C)nc(/N=C(\N)Nc2ccc(-c3ccccc3)cc2)n1,"inconclusive [inhibitor, single point]"
20,CCOC(=O)c1c(C)n(-c2ccc(C)cc2)c2c(C(C(C)=O)C(=O)O)c(Br)c(O)c(O)c12 (stereo not drawn),"inconclusive [inhibitor, partial curve]"
21,O=C(O)c1ccc(-n2nncc2-c2ccccc2)cc1,inactive
22,O=C(N/N=C/c1c(O)n(-c2ccccc2Cl)c(=O)c2ccccc12)c1cccnc1,inactive
23,O=C(COc1ccc(Cl)cc1Cl)NC(=O)c1ccccc1,"inconclusive [inhibitor, full curve, poor fit]"
24,Cc1ccc(-c2nc(CN(Cc3cnn(C)c3)C(C)C)c(C)o2)o1,"inconclusive [inhibitor, partial curve]"
25,Cc1ccc(/C=N/c2sc3c(c2C#N)CCCCC3)o1,"inconclusive [inhibitor, partial curve]"

row,SMILES,Potency
1,Cc1ccc2c(c1)-c1cc(C)nn1C(c1cc(Br)ccc1O)N2 (stereo not drawn),inactive
2,Cc1cc2c(c(=O)n1Cc1ccccc1)C1O[C@](CCCCN3C(=O)c4ccccc4C3=O)(Cc3cc(C#N)ccc31)O2,"inconclusive [inhibitor, partial curve, poor fit]"
3,CCCc1cc(=O)n(-c2nc3ccccc3s2)[nH]1,inactive
4,COc1ccc(OCC#CCN2CCC(C)CC2)cc1,"inconclusive [inhibitor, partial curve]"
5,CCCNC(=O)c1ccc(N2CCC3(CC2)CC(c2cccc(Br)c2)=NO3)c(NC(=O)c2ccc(Br)cc2)c1,inactive
6,COc1ccc(CCNC(=O)c2ccc3c(c2)N(Cc2c(F)cccc2Cl)C(=O)CS3)cc1OC,inactive
7,O=C(C1=C(O)C(=O)N(CCN2CCOCC2)C1c1ccc([N+](=O)[O-])cc1)c1cc2ccccc2o1 (stereo not drawn),"inconclusive [inhibitor, full curve, poor fit]"
8,CN(C)C(=O)N1CCC(C(=O)N2CCCC(C(=O)c3cccc4ccccc34)C2)CC1 (stereo not drawn),"inconclusive [inhibitor, partial curve]"
9,Cc1nn2c(-c3cccc(NC(=O)c4ccccc4)c3)nnc2c2ccccc12,inactive
10,O=C1S/C(=C\c2ccc(N3CCOCC3)o2)C(=O)N1c1ccccc1,"inconclusive [inhibitor, full curve, poor fit]"
11,COc1ccc(NC(=O)CSc2nnc(-c3ccccc3Cl)n2Cc2ccco2)c(OC)c1,active: 35.5 µM
12,CCC(NC(=O)c1cc(COc2cncc(Cl)c2)on1)c1ccncc1 (stereo not drawn),inactive
13,COc1ccc(NC(=O)c2cc3c(=O)n4ccccc4nc3n2C)c(OC)c1,"inconclusive [inhibitor, single point]"
14,NC(=O)c1ccccc1NC(=O)Nc1cccc(Cl)c1Cl,inactive
15,O=C1CCC([N+](=O)[O-])C(c2ccccc2C(F)(F)F)N1 (stereo not drawn),inactive
16,CC1CCN(C(=O)c2cc3ccccc3cc2O)CC1,inactive
17,O=C(COc1ccccc1)NC(=S)Nc1cccc([N+](=O)[O-])c1,inactive
18,Cc1ccc(NC(=O)Cn2cc(S(=O)(=O)c3ccc(C)cc3)c(=O)c3cc4c(cc32)OCO4)cc1,inactive
19,C/C(=N\NC(=S)NC(C)C)c1ccc2c(c1)OCCO2,"inconclusive [inhibitor, full curve, poor fit]"
20,O=C1NC(=O)N(CCc2ccc(F)cc2)C(=O)/C1=C/c1ccco1,"inconclusive [inhibitor, full curve, poor fit]"
21,CCOC(=O)c1sc2nc(CN3CCCCC3)nc(Cl)c2c1C,inactive
22,COc1cc(CNc2ccc3[nH]c(=O)[nH]c3c2)ccc1OCc1ccccc1Cl,"inconclusive [inhibitor, full curve, poor fit]"
23,CCOC(=O)c1ccc(NC(=O)CCc2c(C)nc3c(c(C)nn3-c3ccccc3)c2C)cc1,inactive
